For data set [1], the system named is sgDVs-R2A replicons with NS4B resistance mutations (DENV 2/16681). The note with it: fold change in EC50 versus WT.
In data set [2] the target is NS4A-2K-NS4B precursor (Dengue virus type 2, UniProt P29990). The experiment in a line: pulse-chase labeling, cleavage kinetics in the polyprotein (pIRO-D) context. The format is cell-based, DENV-2. The note with it: 35 nM; pIRO-D NS4B-HA*, Huh7/Lunet-T7 cells; vehicle 15.4 ± 2.6 min; n = 3.
In data set [3] the target is interaction between NS1 and the NS4A-2K-NS4B precursor (Dengue virus type 2, UniProt P29990). The format is cell-based, DENV-2. As to the method:
This tagged NS1 is fully functional as it rescues the replication of a DENV NS1 deletion mutant unable to replicate on its own[18]. Lysates of cells cultured in the presence of various concentrations of JNJ-A07 for 14 h were evaluated either directly or used for HA-specific pull-down and proteins were analyzed by quantitative western blot (Fig. 5e). […] An analogous increase was quantified in the pull-down samples (Fig. 5g). […] The same result was found when we analyzed precursor interaction with NS1 in the polyprotein (pIRO-D) system (Supplementary Fig. 5c).

In data set [4] the test system is sgDVs-R2A replicons with NS4B resistance mutations (DENV 2/16681). Details: method as in PMID 34671169. The following applies: fold change in EC50 versus WT; cited from earlier work.

Like-named read-outs stand apart in the source and are kept apart here.

`C#CCCC1(CCn2cc(C(=O)C(Nc3cc(OC)cc(OCCOC)c3)c3ccc(Cl)cc3OC)c3cc(OC(F)(F)F)ccc32)N=N1` (stereo not shown) [Compound A]: in data set [1], the “resistance conferred by NS4B mutations L94F, V91A, T216N” value was “strong”; the “resistance conferred by NS4B mutations S85L, T108I and A137T” value is on record as “weak”.
With `COc1cc(NC(C(=O)N2CCc3ccc(OC(F)(F)F)cc32)c2ccc(Cl)cc2)cc(OCCCC(=O)O)c1` (stereo not shown) [JNJ-A07], the NS4A-2K-NS4B precursor half-life in data set [2] is 13.6 ± 2.0 min. In addition, the “concentration without reduction of the NS1 interaction relative to that required to prevent precursor interaction with NS2B/NS3 (EC50 6.0 nM)” value in data set [3] (higher) was “around 165 fold”. For the same compound, in data set [3] (various concentrations, 14 h), the “effect on NS4A-2K-NS4B interaction with NS1” value was “did not reduce the NS4A-2K-NS4B interaction with NS1”. For the same compound, in data set [4], the “resistance conferred by NS4B mutations L94F, V91A, T216N” value is on record as “strong”; the “resistance conferred by NS4B mutations S85L, T108I and A137T” value is reported as “weak”.

Source of the values: PMC11271582, “Pan-serotype dengue virus inhibitor JNJ-A07 targets NS4A-2K-NS4B interaction with NS2B/NS3 and blocks replication organelle formation” (Nature Communications, 2024).
